# Patent publication US9682994B2, “Inhibitors of retroviral replication” (The Scripps Research Institute, priority 2011, dated 2017)
# Molecular target: P-TEFb complex, CDK9 and Cyclin T1 (Homo sapiens, UniProt O60563+P50750)
# Test: Bio-CA pull-down, P-TEFb
# Procedure: FIG. 15: CA binds Tat but not to TAR-nonbinding mutant of Tat. HEK293T cells were transfected with wt-Tat101-flag, vvtTat86-flag, Tat86mutant-TAR domain, CDK11-flag or 9G8-flag as negative control. Forty hours later, protein extracts were incubated with DYNABEADS® MYONE™ Streptavidin T1 coated with either biotin or Biotinylated-CA. Pulled down proteins analyzed by Western blot with the indicated antibodies.
# Using Bio-CA coupled to magnetic streptavidin beads, it was shown that CA interacts with Tat-flag transfected into cells but not with a mutant of Tat that no longer binds TAR. […] All the associations between CA and the cellular proteins observed might be direct or indirect, and experiments using recombinant proteins are necessary to determine the nature of these interactions.
# Sequence of P-TEFb complex, CDK9 and Cyclin T1 (P50750 whole entry): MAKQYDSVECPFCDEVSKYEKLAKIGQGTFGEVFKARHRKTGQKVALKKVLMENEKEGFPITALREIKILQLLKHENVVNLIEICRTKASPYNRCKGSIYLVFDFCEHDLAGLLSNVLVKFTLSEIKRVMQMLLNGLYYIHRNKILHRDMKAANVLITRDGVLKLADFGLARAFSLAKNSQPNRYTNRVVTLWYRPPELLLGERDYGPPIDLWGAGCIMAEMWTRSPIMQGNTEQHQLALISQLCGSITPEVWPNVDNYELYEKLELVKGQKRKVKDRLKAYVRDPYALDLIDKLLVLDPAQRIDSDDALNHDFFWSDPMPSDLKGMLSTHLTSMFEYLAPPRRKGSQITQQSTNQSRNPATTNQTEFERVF
# Sequence of P-TEFb complex, CDK9 and Cyclin T1 (O60563 whole entry): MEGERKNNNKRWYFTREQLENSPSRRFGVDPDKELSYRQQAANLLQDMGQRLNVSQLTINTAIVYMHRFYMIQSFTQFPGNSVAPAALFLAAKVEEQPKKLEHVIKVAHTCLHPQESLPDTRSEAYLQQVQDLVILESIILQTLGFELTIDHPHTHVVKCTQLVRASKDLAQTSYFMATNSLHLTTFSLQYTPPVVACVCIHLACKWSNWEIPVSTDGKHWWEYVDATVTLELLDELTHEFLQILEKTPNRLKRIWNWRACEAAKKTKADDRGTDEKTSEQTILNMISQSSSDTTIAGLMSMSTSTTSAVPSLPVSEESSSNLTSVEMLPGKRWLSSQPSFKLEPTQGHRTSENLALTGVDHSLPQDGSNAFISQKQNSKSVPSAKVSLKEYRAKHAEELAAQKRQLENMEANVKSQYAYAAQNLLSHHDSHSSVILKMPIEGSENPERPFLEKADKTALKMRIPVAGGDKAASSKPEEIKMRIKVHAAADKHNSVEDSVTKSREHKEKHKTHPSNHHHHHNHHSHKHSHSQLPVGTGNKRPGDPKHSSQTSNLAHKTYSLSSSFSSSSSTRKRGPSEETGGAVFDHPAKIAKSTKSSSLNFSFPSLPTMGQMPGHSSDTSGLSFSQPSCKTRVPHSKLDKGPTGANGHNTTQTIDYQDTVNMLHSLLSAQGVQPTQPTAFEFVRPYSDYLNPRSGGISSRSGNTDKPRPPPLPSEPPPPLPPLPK
smiles,measurement,value
"CN(C)C1CC23CCC4(O2)C(=CCC2(C)C(c5ccc6ccncc6c5)CCC42)C=C3C(O)C1O (stereo not shown) [CA, Cortistatin A]",interaction with P-TEFb complex (CDK9 and Cyclin T1),shown to interact
